# In all, about 310,000 compounds went through this assay and about 2,200 (0.71%) showed an effect of 50% or more. Effects have a minus sign here. This is one part of the list.
# Target: human ether-à-go-go-related gene (hERG) potassium channel (human, UniProt Q12809)
# Test: primary screen, population patch clamp on CHO cells stably expressing hERG
# human ether-à-go-go-related gene (hERG) potassium channel, sequence (Q12809 whole entry, looked up): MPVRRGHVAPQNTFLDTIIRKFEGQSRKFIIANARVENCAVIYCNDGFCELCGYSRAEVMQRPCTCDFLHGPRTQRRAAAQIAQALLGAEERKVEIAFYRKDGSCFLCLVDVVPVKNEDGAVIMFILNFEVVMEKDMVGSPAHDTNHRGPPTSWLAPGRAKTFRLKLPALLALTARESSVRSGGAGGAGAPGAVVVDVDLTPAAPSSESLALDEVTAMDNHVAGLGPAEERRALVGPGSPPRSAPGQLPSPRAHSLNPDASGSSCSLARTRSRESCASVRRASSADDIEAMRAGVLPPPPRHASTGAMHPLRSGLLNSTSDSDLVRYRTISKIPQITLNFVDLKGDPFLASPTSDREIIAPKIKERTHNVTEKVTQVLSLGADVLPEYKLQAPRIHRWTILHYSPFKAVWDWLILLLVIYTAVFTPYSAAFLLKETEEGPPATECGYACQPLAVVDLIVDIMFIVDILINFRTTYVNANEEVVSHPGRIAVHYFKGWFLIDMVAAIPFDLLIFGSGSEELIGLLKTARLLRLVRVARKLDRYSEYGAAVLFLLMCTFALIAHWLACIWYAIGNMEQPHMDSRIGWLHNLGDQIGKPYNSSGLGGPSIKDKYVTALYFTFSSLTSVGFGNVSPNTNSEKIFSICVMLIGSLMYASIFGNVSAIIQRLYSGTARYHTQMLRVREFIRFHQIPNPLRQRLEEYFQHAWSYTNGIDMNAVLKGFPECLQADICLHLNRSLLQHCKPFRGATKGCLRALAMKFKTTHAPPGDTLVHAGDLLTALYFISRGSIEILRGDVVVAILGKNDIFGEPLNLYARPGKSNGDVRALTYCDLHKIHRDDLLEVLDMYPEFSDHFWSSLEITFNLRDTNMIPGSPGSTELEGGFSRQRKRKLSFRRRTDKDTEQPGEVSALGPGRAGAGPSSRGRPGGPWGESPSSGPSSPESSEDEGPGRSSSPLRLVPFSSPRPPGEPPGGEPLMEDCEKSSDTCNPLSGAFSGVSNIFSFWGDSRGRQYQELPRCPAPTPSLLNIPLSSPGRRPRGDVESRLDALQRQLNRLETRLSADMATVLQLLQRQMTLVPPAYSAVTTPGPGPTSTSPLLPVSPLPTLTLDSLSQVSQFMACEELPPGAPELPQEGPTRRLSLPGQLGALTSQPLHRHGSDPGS
row,SMILES,"hERG current change (%, negative = inhibition) at 1uM [%]"
1,CCS(=O)(=O)c1ccc(O)c(NC(=O)c2cc(OC)c(OC)c(OC)c2)c1,6.58
2,CSc1sc(C)cc1C=O,9.96
3,COc1ccc(C(=O)COC(=O)C2CCC(=O)N2)cc1 (stereo not shown),7.28
4,CC(C)(CC(=O)O)CC(=O)N1CCN(c2cc(C(F)(F)F)nc3ccccc23)CC1,13.2
5,C/C=C/c1ccc(OCC(=O)NCc2ccccc2OC)c(OC)c1,7.25
6,Cc1cccc(Nc2ncnc3nc[nH]c23)c1,-8.14
7,COc1ccccc1OCCSc1nc(N)cc(N)n1,8.67
8,Cc1cc(NC(=O)c2ccc3c(c2)C(=O)N(c2cccc(C)c2C)C3=O)no1,11.7
9,Cc1nc(NC(=O)C23CCC(C)(C(=O)O2)C3(C)C)sc1C (stereo not shown),3.32
10,CCCCn1c(SCC(=O)/C(C#N)=C(\C)N)nc2ccccc2c1=O,6.99
11,CC(=O)OCC1(C)CN(c2ccccc2)NC1=O (stereo not shown),11
12,CCOP(=O)(OCC)c1nc(-c2cccc3ccccc23)oc1NCc1ccc(OC)cc1,4.52
13,N#CCCn1cc(/C=N/NC(N)=S)c(-c2ccc(Br)cc2)n1,3.49
14,CCCCn1c(-c2cccc(F)c2)nc2c1c(=O)[nH]c(=O)n2CC(C)C,9.01
15,CCc1nccn1CCC(=O)N1CCc2c([nH]c3ccccc23)C1CC(C)C (stereo not shown),3.53
16,Cc1ccsc1/C=C/C1=NCCCN1C.O=C(O)C(O)C(O)C(=O)O,12.9
17,O=C(NN1CCOCC1)c1cc(-c2ccccc2)nc2ccccc12,-1.69
18,CCOC(=O)C1(Cc2cccc(OC)c2)CCN(Cc2ccc(OC)c(O)c2)CC1,-16.9
19,COc1cc(/C=C2/NC(=O)N(Cc3ccccc3F)C2=O)cc(OC)c1OC,14.2
20,O=C1C2C3C=CC(C4CC34)C2C(=O)N1c1cc(Cl)ccn1 (stereo not shown),11.3
21,CCOC(=O)N1CCN(C(=O)c2ccccc2NC(=O)COc2ccccc2C)CC1,-1.41
22,O=C(Cc1ccccc1)NCC(=O)OCC(=O)c1ccc(OC(=O)c2ccccc2)cc1,6.4
23,Cc1ccccc1NC(=S)Nc1ccc(Br)cc1,-1.92
24,O=[N+]([O-])c1ccc(OC/C=C2\Oc3ccc([N+](=O)[O-])cc3C2N2CCOCC2)cc1 (stereo not shown),-32.2
25,CCOc1ccc(CCNC(=O)CSc2cc(=O)n(CC)c3ccccc23)cc1OCC,6.02
